We go through 85 compounds from ChEMBL document CHEMBL4888484, “Replenishing the malaria drug discovery pipeline: Screening and hit evaluation of the MMV Hit Generation Library 1 (HGL1) against asexual blood stage Plasmodium falciparum ,using a nano luciferase reporter read-out” (2022).

The campaign covered roughly 150,000 compounds. About 540 (0.36%) showed an effect of 50% or more. Some of the results follow.

For the test, the system named is Plasmodium falciparum. Description: Primary screen in NF54 nanoGlo assay, in single point, at 2uM, 72h; a lower Z score goes with more inhibition. Particulars: timepoint 72 hour. The class given is functional, Erythrocyte.
One may read the % Inhibition as the drop in the measured response relative to a control, in per cent. With `COc1ccc(C(CO)CNC2[C@@H]3CCC[C@@H]3C2(C)C)cc1` (stereo not given in full), the “% Inhibition” value amounted to 0% and the Z score is -0.02.
The corresponding values for `Cc1cccc(CNC(=O)c2cc(Cn3c(C)nc4ccccc43)on2)n1` are -10% and 1.1.
The corresponding values for `O=C(Nc1nc(-c2ccc(Cl)cc2)cs1)[C@H]1CCS(=O)(=O)C1` are 0% and 0.06.
`CC(NC(=O)N1CCCC(C2CCCCO2)C1)c1ncc(Br)cn1` (stereo not given): the “% Inhibition” value is reported as -11% and the Z score stood at 2.37.
The corresponding values for `CCn1ccnc1[C@H](CCc1ccccc1)OC(=O)c1cncn1C` are -3% and 0.35.
The corresponding values for `Cc1ccc(CNc2ccncc2F)o1` are 1% and -0.08.
As for `CCCCN(C)Cc1ccc(OC[C@@H](O)CN(CC)CC)c(OC)c1`, the “% Inhibition” value is reported as -2% and the Z score is 0.29.
For `O=C(NCC1CCN(Cc2ccc(-c3ccccc3Cl)o2)CC1)[C@H]1CCOC1`, in that order: -7% and 1.21.
In the case of `Cc1ccc(F)cc1C=Cc1nc2cnccc2c(=O)[nH]1`, the “% Inhibition” value is given as -6% and the Z score turned out to be 0.99.
For `CC(C)NC1CCN(C[C@H](O)c2cccc3ccccc23)CC1`, the “% Inhibition” value amounted to 18% and the Z score was -2.16.
For `Cc1nnc(CCNc2cc(C(C)C)ncn2)n1C`, in that order: -39% and 4.57.
For `CNc1nc2c(c(C(=O)N3CCCC3)n1)CN(Cc1ccc(C)s1)CC2`, the “% Inhibition” value was -15% and the Z score amounted to 1.69.
As for `CCCN1CCN(C(=O)c2cnn(-c3nccc(-c4cccc(OC)c4)n3)c2C2CC2)CC1`, the “% Inhibition” value is given as -10% and the Z score was 1.29.
Regarding `O=S1(=O)CCN(C2CCN(CC(F)(F)F)CC2)CC1`, the “% Inhibition” value was -3% and the Z score was 0.36.
`O=C(C[C@@H](c1cccc(Cl)c1)c1ccccc1O)NCc1ccncc1`: the “% Inhibition” value was -9% and the Z score was determined as 1.1.
For `Cc1noc(C)c1CN1C[C@H]2CC[C@@H](C1)N(Cc1ccc3c(c1)OCCO3)C2`, in that order: -1% and 0.11.
The corresponding values for `Cc1cnc(NC(=O)c2ccc(OCC(F)F)nc2)[nH]1` are -1% and 0.11.
The corresponding values for `CC1CCC(N2C[C@@H](C(=O)OCC3(C)COC3)CC2=O)CC1` (stereo not given in full) are -17% and 2.28.
Take `CNCc1cccc(Br)c1OCCS(C)(=O)=O`: the “% Inhibition” value was -14% and the Z score worked out at 1.62.
The corresponding values for `CCN1C(=O)c2c(C(=O)NCc3cccc(F)c3)ncn2C[C@@]1(C)C(=O)NC1CCCC1` are -9% and 1.78.
For `O=C(CN1C(=O)c2cccnc2Oc2ccccc21)N1CCc2ccccc21`, in that order: -11% and 1.41.
For `COc1cccc(CC(=O)N2CC(n3ccnc3)C2)c1`, in that order: -1% and 0.09.
For `CC(C)(C)c1oc(C(N)=O)cc1CN1CC[C@H]1c1ccc(F)cc1`, the “% Inhibition” value is given as -14% and the Z score was 1.98.
For `CN[C@@H](c1ccc(F)cc1)c1cnccn1`, in that order: 0% and -0.03.
Regarding `Cc1nc2ccc(Cl)cc2c(-c2ccccc2)c1C1=NN(C(=O)CCC(=O)O)[C@H](c2ccc(Cl)cc2)C1`, the “% Inhibition” value is on record as -13% and the Z score turned out to be 2.14.
For `O=C(c1ccccn1)N1CC[C@H](Nc2noc(-c3ccccc3)n2)[C@@H](O)C1`, in that order: 5% and -0.71.
The corresponding values for `Cc1ccnc(CNC(=O)c2cncn2C)c1` are -3% and 0.51.
Turning to `O=C(NCc1cncc(O)c1)[C@@H]1CCCC[C@@H]1c1ccccc1`, the “% Inhibition” value is listed as -16% and the Z score is listed as 3.12.
The corresponding values for `Cc1c(NC(=O)c2occ3c2CCOC3)cnn1C` are -13% and 1.96.
The corresponding values for `CS(=O)(=O)c1ccc(NC[C@]2(O)CCCc3ccccc32)cc1` are 2% and -0.33.
The corresponding values for `CC1(C)CS(=O)(=O)N(c2cccc(C(=O)N3CCN(Cc4ccccc4)CC3)c2)C1=O` are -4% and 0.47.
As for `O=C(Nc1ccccc1)N(Cc1cccs1)C1CCCC1`, the “% Inhibition” value is listed as -5% and the Z score is given as 0.69.
The corresponding values for `C[C@H](C(=O)NCc1nccs1)C1CCOCC1` are -7% and 1.01.
For `CN(C)c1ccc(NC(=O)Cn2cnc3ccccc32)cc1`, in that order: -13% and 1.73.
Regarding `CCC(=O)Nc1ccc(N(C)C)c(CN(C(=O)C(C)C)[C@@H](C)CC)c1`, the “% Inhibition” value was -2% and the Z score came out at 0.29.
`CC(=O)c1ccn(-c2cncc3ccccc23)n1`: the “% Inhibition” value is 1% and the Z score is recorded as -0.08.
As for `CCN(CC)C(=O)c1cnn(-c2ncc(C)c(-c3cccs3)n2)c1C1CC1`, the “% Inhibition” value is recorded as -8% and the Z score is given as 1.04.
The corresponding values for `CCn1cncc1CNC(=O)N1CCN(Cc2cccc(C)c2)C(=O)[C@@H]1C` are 10% and -1.11.
The corresponding values for `O=C(NCc1ccc(-c2ccco2)o1)C(=O)Nc1ccccc1C(F)(F)F` are -1% and 0.1.
For `Cc1nc(C)c(C(=O)NCc2ccc3[nH]c(NC(=O)c4sc(C)nc4C)nc3c2)s1`, in that order: -35% and 4.1.
For `CC[C@H](C)N(Cc1cccc(OS(=O)(=O)c2cccc(C(F)(F)F)c2)c1)C(=O)C1CCC1`, the “% Inhibition” value turned out to be 0% and the Z score stood at 0.02.
In the case of `CNc1nc(C)cc(C(=O)NCC(C)(C)C[C@H](C)O)n1`, the “% Inhibition” value is given as -2% and the Z score turned out to be 0.43.
`CC(=O)N1CCN(Cc2cn3cc(Br)ccc3n2)CC1`: the “% Inhibition” value is reported as -10% and the Z score was 1.37.
The corresponding values for `Cc1nc(-c2ccccc2)sc1-c1nc(-c2ccccc2)ncc1S(=O)(=O)c1ccccc1` are 3% and -0.34.
For `O=C(c1cnn(C2CCCCC2)c1)N1CCCC1`, in that order: -12% and 1.84.
The corresponding values for `Cc1nn(CC2CC2)c(=O)n1-c1ccc(OCc2ccccc2)cc1` are -7% and 0.82.
As to `COC(=O)CN(CC#N)C(=O)CCc1cccc(Cl)c1`, the “% Inhibition” value is recorded as -12% and the Z score is reported as 1.48.
The corresponding values for `O=C(NCCN1CCN(c2cccc(Cl)c2)CC1)C1CCN(c2nc3cccnc3s2)CC1` are -22% and 1.98.
The corresponding values for `CC(=O)NCCNC(=O)c1cc(NCc2ccc(F)cc2F)cc(S(=O)(=O)Nc2ccccc2C)c1` are -18% and 2.14.
For `Cc1cnc(C2CC2)n1CCNC(=O)CCC1CCCC1`, in that order: -6% and 0.74.
Regarding `CCOC(CCNC(=O)NC(C)c1n[nH]c(=O)n1C)C1CCCC1` (stereo not given), the “% Inhibition” value is given as -5% and the Z score is recorded as 0.77.
For `Nc1nnc(CCc2nnc(N)s2)s1`, the “% Inhibition” value was -25% and the Z score was found to be 2.66.
The corresponding values for `COc1ccnc(N2CCC[C@H]2c2ccc3c(c2)OCCCO3)n1` are -4% and 0.35.
The corresponding values for `CN(Cc1ncccc1Cl)[C@@H](CC(N)=O)c1ccccc1` are -4% and 0.65.
For `Cc1ccc(S(=O)(=O)Nc2ccc3oc(C)nc3c2)c(C)c1`, in that order: 2% and -0.33.
Regarding `COc1ccc(NC(=O)N2CC[C@@H](C(F)(F)F)C(C)(C)C2)c(C)n1`, the “% Inhibition” value is listed as -7% and the Z score is 0.91.
Turning to `C[C@](O)(CN1Cc2ccccc2C1=O)C(=O)OCC1CC1`, the “% Inhibition” value was -3% and the Z score came to 0.31.
The corresponding values for `c1cc(C2(c3noc(C4CCC4)n3)CCC2)ccn1` are 1% and -0.18.
For `O=C(Nc1ccc(Cl)c(N2CCCS2(=O)=O)c1)c1ccc(F)c(F)c1`, in that order: -6% and 0.61.
As for `CCC[C@H]1CN(c2cc(C)nc(N)n2)C[C@@H]1NC(=O)C1CCOCC1`, the “% Inhibition” value is 12% and the Z score was -1.53.
The corresponding values for `Cc1nc(CN(C)C(=O)c2ccccc2Nc2cccc(C)c2C)cs1` are 37% and -4.96.
As to `COC(=O)N1CCC(NCC2(c3cccc(C)c3)CCCC2)CC1`, the “% Inhibition” value turned out to be 0% and the Z score was -0.02.
As for `CCN1C(=O)Cc2cc(NC(=O)c3ccc(Br)o3)ccc21`, the “% Inhibition” value is 35% and the Z score was -1.1.
Regarding `Cc1cnn(CCNC(C)C(=O)NCC2COc3ccccc3O2)c1` (stereo not given), the “% Inhibition” value is listed as -2% and the Z score is on record as 0.29.
In the case of `O=C(NC1CCCC(OC(F)F)C1)c1cnnc2ccccc12` (stereo not given), the “% Inhibition” value stood at 11% and the Z score is -1.35.
In the case of `CC(C)N1C(=O)[C@@]2(CC(=O)Nc3c2c(=O)[nH]n3C(C)C)c2cc(Cl)ccc21`, the “% Inhibition” value was -5% and the Z score was determined as 0.57.
For `COc1cccc(N(C(=O)[C@H]2CCCO2)c2ccccc2)c1`, in that order: -3% and 0.56.
Consider `CS(=O)(=O)N1CCC[C@@H]1CNC(=O)N1CCC(C(F)F)CC1`, for which the “% Inhibition” value is given as -19% and the Z score is 1.72.
For `CO[C@H]1CC[C@H](NC(=O)[C@H](O)c2ccc(F)cc2)CC1`, in that order: -16% and 3.12.
For `COc1cccc(-c2nc(-c3ccc(C)cc3)c(NC(=O)c3ccco3)s2)c1`, in that order: -15% and 2.73.
The corresponding values for `Cc1nccn1CCCNC1(c2ccccc2)CCC1` are 1% and -0.16.
Turning to `CCC[C@H]1CN(C(=O)c2ccn(C(F)F)n2)C[C@@H]1N`, the “% Inhibition” value is -7% and the Z score is given as 1.04.
The corresponding values for `C=CCOc1ccccc1CN[C@H]1C[C@@H](C(=O)NCc2cccnc2)N(C/C=C/c2ccccc2)C1` are 5% and -0.6.
As to `CNC(=O)NC1CCN(c2nc3cccnc3n(Cc3ccccc3)c2=O)CC1`, the “% Inhibition” value was -16% and the Z score was determined as 2.39.
Consider `O=C(c1c(-c2ccccc2)c(-c2ccccc2)n[nH]c1=O)N1CCCCC1`, for which the “% Inhibition” value came to 0% and the Z score came to 0.05.
`COc1ccnc(N2CC[S+]([O-])CC2)n1`: the “% Inhibition” value is -1% and the Z score was determined as 0.12.
Take `C[C@H]1COCCN1CCn1cnc2ccccc2c1=O`: the “% Inhibition” value was -8% and the Z score is 1.28.
The corresponding values for `O=C(Cc1ccc(F)cc1Br)N1CCn2ccnc2C1` are -5% and 0.45.
With `CC1(C)NC(=O)N(Cc2cc(-c3ccc(Cl)cc3)no2)C1=O`, the “% Inhibition” value was -11% and the Z score was found to be 1.54.
In the case of `CCN(CCO)c1ncc(F)c(-c2ccsc2)n1`, the “% Inhibition” value came to 0% and the Z score was determined as 0.01.
Turning to `CCC(CC)CS(=O)(=O)N1CCCCC[C@@H]1CC`, the “% Inhibition” value is listed as -3% and the Z score is 0.39.
On to `Cc1cnc(C2CCN(C(=O)c3cccs3)CC2)n1[C@H](C)CO`, for which the “% Inhibition” value is reported as -6% and the Z score turned out to be 1.09.
The corresponding values for `Cc1cc(Cl)cc2c1NC(=O)C21NC(Cc2c[nH]c3ccccc23)[C@H]2C(=O)N(Cc3ccccc3)C(=O)[C@H]21` (stereo not given in full) are -12% and 1.58.
The corresponding values for `COc1c(CN[C@@H](C(=O)N2CCCC2)c2ccccc2)c(C)nn1C` are -14% and 2.76.
For `Cc1ccc(F)c(C(=O)N[C@H]2CCOC[C@@H]2OCC2CC2)c1Cl`, in that order: -7% and 1.27.
